# Assay results taken from article PMC4336329 (PLoS ONE, 2015).
# The campaign covered roughly 310,000 compounds. About 2,200 (0.71%) showed an effect of 50% or more. The effect is printed as a negative number. The list shows a part of the results.
# Target: human ether-à-go-go-related gene (hERG) potassium channel (human, UniProt Q12809)
# Experiment: primary screen, population patch clamp on CHO cells stably expressing hERG
# human ether-à-go-go-related gene (hERG) potassium channel, sequence (Q12809 whole entry, looked up): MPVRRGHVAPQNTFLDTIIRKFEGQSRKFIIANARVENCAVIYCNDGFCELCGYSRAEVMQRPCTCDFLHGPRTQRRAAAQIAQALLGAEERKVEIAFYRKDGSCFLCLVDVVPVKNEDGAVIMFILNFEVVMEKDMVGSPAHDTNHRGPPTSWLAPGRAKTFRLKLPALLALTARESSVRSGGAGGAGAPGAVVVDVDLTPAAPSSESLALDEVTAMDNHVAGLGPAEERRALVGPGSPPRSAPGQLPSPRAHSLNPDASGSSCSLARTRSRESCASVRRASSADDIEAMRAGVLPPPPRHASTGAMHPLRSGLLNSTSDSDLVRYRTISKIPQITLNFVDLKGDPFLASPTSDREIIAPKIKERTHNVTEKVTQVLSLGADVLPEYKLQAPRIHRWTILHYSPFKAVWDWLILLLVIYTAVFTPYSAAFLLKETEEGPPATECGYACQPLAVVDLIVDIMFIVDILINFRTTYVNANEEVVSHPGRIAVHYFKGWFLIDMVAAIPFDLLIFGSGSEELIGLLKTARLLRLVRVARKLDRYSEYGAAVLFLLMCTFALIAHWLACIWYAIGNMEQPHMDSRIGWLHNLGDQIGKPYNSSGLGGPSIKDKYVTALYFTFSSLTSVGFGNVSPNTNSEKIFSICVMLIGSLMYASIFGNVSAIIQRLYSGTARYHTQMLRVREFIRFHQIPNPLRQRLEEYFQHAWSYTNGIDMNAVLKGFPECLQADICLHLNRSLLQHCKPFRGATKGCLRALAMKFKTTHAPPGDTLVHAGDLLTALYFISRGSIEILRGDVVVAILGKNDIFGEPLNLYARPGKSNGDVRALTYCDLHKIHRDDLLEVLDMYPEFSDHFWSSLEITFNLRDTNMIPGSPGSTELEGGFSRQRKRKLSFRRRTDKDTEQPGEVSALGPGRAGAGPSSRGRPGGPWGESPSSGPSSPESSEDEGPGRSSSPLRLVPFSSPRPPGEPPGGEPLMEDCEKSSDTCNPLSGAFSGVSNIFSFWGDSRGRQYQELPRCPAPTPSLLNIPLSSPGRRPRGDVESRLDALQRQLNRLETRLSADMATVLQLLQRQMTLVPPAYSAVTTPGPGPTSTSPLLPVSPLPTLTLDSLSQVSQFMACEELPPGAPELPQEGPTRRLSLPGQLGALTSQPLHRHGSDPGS
row,SMILES,"hERG current change (%, negative = inhibition) at 1uM [%]"
1,Oc1c(N=NC(=S)Nc2ccccc2F)c2ccccc2n1Cc1ccccc1F,11.9
2,COC(=O)c1ccccc1NC(=O)Cn1cnc2cc(C)c(C)cc21,2.29
3,CCCCC(=O)Nc1ccccc1C(=O)N1CCOCC1,8.91
4,CC(C)=C1C2CCC1C1C(=O)N(c3nccs3)C(=O)C21 (stereo not drawn),17.3
5,COc1cc(NC(=O)c2ccc3c(c2)OCO3)c2ncccc2c1,14.7
6,Cc1ccc(C(=O)NNC(=O)c2cccc(S(=O)(=O)N3CCN(c4ccccc4)CC3)c2)cc1,-0.28
7,CC(C)(O)/C=C1/Oc2ccccc2C1N1CCCCC1 (stereo not drawn),2.26
8,COc1ccccc1CNC(=O)CSc1ccc(C(=O)Nc2ccccc2OC)cc1[N+](=O)[O-],10.2
9,CO/N=C\Cc1oc(=O)c(NC(=O)c2ccccc2)cc1C(=O)OC,3.64
10,Cc1ccc(N2CC(C(=O)Nc3nnc(SCc4ccccn4)s3)CC2=O)cc1 (stereo not drawn),2.44
11,C=CCn1c(SCC(=O)N2CCCCCC2)nc2ccccc2c1=O,-17.5
12,CCN(CC)S(=O)(=O)c1ccc(C(=O)NNC2=NS(=O)(=O)c3ccccc32)cc1,17.6
13,CC1C2C(c3ccccc3)N(C)C(=O)N(C)C2N(C)C(=O)N1C (stereo not drawn),4.46
14,Cc1ccc(Cn2cccc(NC(=O)CCC3CCCC3)c2=O)cc1,1.91
15,Cc1cc(C(=O)Nc2cccc(O)c2)c(C)o1,9.98
16,COc1ccc(NC(=O)/C(C#N)=C\c2cc(C)n(-c3ccc4c(c3)OCO4)c2C)cc1,6.96
17,O=C(/C=C/c1ccco1)N(Cc1ccccc1)C1CCS(=O)(=O)C1 (stereo not drawn),6.24
18,CC[N+](CC)(CCO)CCCN1C(=O)C2CC=C(Cl)CC2C1=O.[Br-] (stereo not drawn),13.3
19,O=C(CC(=O)NC1CCCCC1)N/N=C/c1cccc2ccccc12,11.5
20,c1ccc2c(c1)nc(N1CCOCC1)c1nnnn12,11.2
21,O=S(=O)(NCCc1ccccc1)c1cccs1,14.4
22,Cc1ccc(Nc2nc(CSc3nnc(-c4ccncc4)n3C)cs2)cc1,-6.91
23,CC(C)(C)NC(=O)CSc1nnc(NC(=O)CCc2ccccc2)s1,12.2

row,SMILES,"hERG current change (%, negative = inhibition) at 1uM [%]"
1,Cc1ccc(C2=[N+]([O-])C(C)(C)CC2)cc1,14.4
2,CCC1CN(C)CCC1(OC(C)=O)c1ccccc1.Cl (stereo not drawn),11.8
3,COC(=O)c1ccc(N)cc1O,16.6
4,O=C(COC(=O)c1ccc(S(=O)(=O)N2CCCC2)cc1)Nc1ccc(N2CCOCC2)cc1,16
5,Cc1ccc(C(=O)N2c3ccccc3OCC2C)cc1 (stereo not drawn),10.8
6,COc1ccc(OC)c(S(=O)(=O)N2CCC(C(=O)Nc3ccc(C)c(C)c3)CC2)c1,8.67
7,CC1(C)CC(=O)c2c(noc2-c2ccccc2)C1,13.4
8,Cc1cccc(C(=O)OCC(=O)NN2C(=O)NC3(CCC(C)CC3)C2=O)c1O (stereo not drawn),10.6
9,COc1cccc(OC)c1C(=O)NC(C)C12CC3CC(CC(C3)C1)C2 (stereo not drawn),11.6
10,O=C1C(Cl)=C(NCCCN2CCOCC2)C(=O)N1CCc1ccccc1,-8.18
11,CN1CCN(C(=O)c2ccccc2NC(=O)c2cccc(Cl)c2)CC1,1.38
12,CCN(CC)c1ccc(NC(=O)COC(=O)CCC(=O)c2cccs2)cc1,6.19
13,CCc1ccc(OC)c(S(=O)(=O)NCc2cccs2)c1,7.29
14,Cc1ccc(NC(=O)C2(c3ccccc3)CCOCC2)cc1,11
15,Cc1nn(-c2cc(C)c3ccccc3n2)c2c1CCC2,9.38
16,Cc1cc(N2CCCC(C(=O)Nc3cccc(Cl)c3)C2)n2ncnc2n1 (stereo not drawn),-1.1
17,CCOC(=O)c1c(NC(=O)C2c3ccccc3Oc3ccccc32)sc(C(=O)N(CC)CC)c1C,11.7
18,CC1C(=O)NN=C1C(=O)N/N=C/c1cccs1 (stereo not drawn),15.1
19,COC(=O)c1ccc(N/C=C/C(=O)c2ccccc2)cc1,16.9
20,COc1cc(Nc2ncnc(N)n2)cc(OC)c1,8.58
21,O=C(Nc1cc(Br)ccc1O)C1CC(c2c(F)cccc2Cl)=NO1 (stereo not drawn),16
22,COC(=O)C1CCN(CC(=O)N(C)c2c(N)n(Cc3ccccc3)c(=O)[nH]c2=O)CC1,-3.83
